# Experimental data taken from paper PMC4336329 (PLoS ONE, 2015).
# Screen size: about 310,000 compounds; about 2,200 (0.71%) showed an effect of 50% or more. Effects have a minus sign here. This is one part of the list.
# Target: human ether-à-go-go-related gene (hERG) potassium channel (human, UniProt Q12809)
# Assay: primary screen, population patch clamp on CHO cells stably expressing hERG
# Chain of human ether-à-go-go-related gene (hERG) potassium channel (Q12809 whole entry, looked up): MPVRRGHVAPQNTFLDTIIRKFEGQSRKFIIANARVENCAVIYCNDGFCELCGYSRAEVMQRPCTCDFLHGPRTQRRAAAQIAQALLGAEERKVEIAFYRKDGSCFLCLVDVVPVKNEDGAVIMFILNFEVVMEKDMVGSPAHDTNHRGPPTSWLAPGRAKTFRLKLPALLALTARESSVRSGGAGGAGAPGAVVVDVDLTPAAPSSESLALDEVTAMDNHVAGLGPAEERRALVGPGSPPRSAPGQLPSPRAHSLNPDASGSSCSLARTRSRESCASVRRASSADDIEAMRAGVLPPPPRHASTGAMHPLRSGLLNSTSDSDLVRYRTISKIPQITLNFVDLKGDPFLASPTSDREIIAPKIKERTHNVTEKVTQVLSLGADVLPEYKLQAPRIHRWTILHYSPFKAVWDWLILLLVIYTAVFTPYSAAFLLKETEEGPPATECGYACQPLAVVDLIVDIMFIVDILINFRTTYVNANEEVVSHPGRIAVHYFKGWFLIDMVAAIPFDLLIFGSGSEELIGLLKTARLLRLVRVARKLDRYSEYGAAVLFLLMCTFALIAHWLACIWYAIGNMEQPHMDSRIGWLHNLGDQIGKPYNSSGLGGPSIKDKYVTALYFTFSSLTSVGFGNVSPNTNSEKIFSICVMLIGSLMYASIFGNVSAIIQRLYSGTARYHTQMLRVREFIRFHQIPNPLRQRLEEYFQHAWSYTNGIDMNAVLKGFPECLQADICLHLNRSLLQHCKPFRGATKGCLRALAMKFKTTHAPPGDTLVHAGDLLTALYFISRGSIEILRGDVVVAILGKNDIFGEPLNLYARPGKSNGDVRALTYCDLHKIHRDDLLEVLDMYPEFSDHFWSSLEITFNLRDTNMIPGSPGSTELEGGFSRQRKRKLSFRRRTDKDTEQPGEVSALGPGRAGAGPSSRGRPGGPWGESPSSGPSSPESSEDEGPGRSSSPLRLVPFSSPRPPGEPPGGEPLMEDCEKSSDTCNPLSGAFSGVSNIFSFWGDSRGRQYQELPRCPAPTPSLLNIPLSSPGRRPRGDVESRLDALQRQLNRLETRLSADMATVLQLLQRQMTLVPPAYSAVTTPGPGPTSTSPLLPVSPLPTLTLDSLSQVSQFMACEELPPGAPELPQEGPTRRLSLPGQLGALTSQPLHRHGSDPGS
row,Structure (SMILES),"hERG current change (%, negative = inhibition) at 1uM"
1,CCC(=O)N(CCC(c1ccc(C)cc1)c1ccco1)Cc1ccco1 (stereo not drawn),7.84%
2,O=C1CCCc2ccccc2N1Cc1c(Cl)cccc1Cl,4.79%
3,Cc1cccc(-c2nc3ccccc3c3nncn23)c1,4.02%
4,Cc1ccc(/C=C/C(=O)OCc2nc(N)nc(Nc3ccccc3C)n2)o1,10.5%
5,O=C(Nc1c(C(=O)NCc2ccco2)cnn1-c1ccccc1)c1ccc(F)cc1,11.4%
6,CCn1cc(C(=O)NC(=S)Nc2sc3c(c2C(=O)OC)CCCCCC3)cn1,16.2%
7,CCOC(=O)c1ccc(NC(=S)NCCCN2CCCCC2)cc1,-5.8%
8,CCOc1ccc(/C=N/NC(=O)c2nnn(-c3nonc3N)c2-c2cccs2)cc1,14.2%
9,CCC(=O)Nc1ccc(N/C(N)=N/c2nc(C)cc(C)n2)cc1,5.28%
10,NC(=O)c1ccc(C23CC4CC(CC(C4)C2)C3)o1,10.8%
11,Cc1oc(-c2ccccc2)nc1C(=O)Nc1nccs1,15.7%
12,NC(=NCCc1ccc(Cl)cc1)NS(=O)(=O)c1ccccc1,9.74%
13,Cc1c(Cl)cccc1NC(=O)CCN1CCCCCC1,9.3%
14,CS(=O)(=O)N(CC(=O)NCC1CCCO1)c1cccc([N+](=O)[O-])c1 (stereo not drawn),11.6%
15,CC(C)c1ccc(C(=O)CC2(O)C(=O)N(CN3CCOCC3)c3ccccc32)cc1 (stereo not drawn),6.82%
16,O=C1C=C(c2ccccc2)OC2(CCCC2)O1,-20.8%
17,Cc1csc2nc(COC(=O)c3ccc(Cl)c([N+](=O)[O-])c3)cc(=O)n12,-11.2%
18,Cc1cc(C)c2nc(SC(C)C#N)cc(C)c2c1 (stereo not drawn),12%
19,CCOc1ccccc1N1C(=O)CC(N(O)c2ccccc2)C1=O (stereo not drawn),12.7%
20,Cc1ccc(S(=O)(=O)CC(=O)c2ccc3c(c2)OCCO3)cc1,6.35%
21,O=C(O)CC1(CC(=O)Nc2cccc(C(F)(F)F)c2)CCCC1,10%
22,O=[N+]([O-])c1cnn(-c2nc(-c3ccco3)cc(C(F)(F)F)n2)c1,4.06%
23,CN(C)c1ccc(-c2nc3ccccn3c2/N=C/c2ccc(Br)cc2)cc1,13.2%

row,Structure (SMILES),"hERG current change (%, negative = inhibition) at 1uM"
1,NC(=O)c1ccc(Sc2nnc(-c3cccs3)n2CC2CCCO2)c([N+](=O)[O-])c1 (stereo not drawn),8.36%
2,CCCN(CC(=O)Nc1ccc(F)c(F)c1F)CC(=O)Nc1c(C)n(C)n(-c2ccccc2)c1=O,5.46%
3,CC1CCCN(C(=O)CNC(=O)Cn2ccc3ccccc3c2=O)C1 (stereo not drawn),0.263%
4,Cn1cc(CN2CCC(N3CCNC(=O)CC3)CC2)c(-c2ccccc2F)n1,8.86%
5,O=[N+]([O-])c1ccc(C(=S)N2CCCC2)cc1,7.25%
6,COc1cc(NC(=O)c2c(F)cccc2F)nc(OC)n1,12.4%
7,CC1(C)Nc2ccc(O)cc2-c2c1ssc2=S,3.69%
8,O=C1C2C3C=CC(C3)C2C(=O)N1Nc1ccccc1 (stereo not drawn),14.2%
9,Cc1ccc(C(=O)N2CCN(c3ccc(NC(=S)NC(=O)c4cccs4)cc3)CC2)cc1,4.71%
10,O=C(c1ccc(F)cc1)N(c1ccccn1)C1CCCCC1,-2.72%
11,CCN1CCN(c2ccc(S(=O)(=O)N3CCOCC3)cc2NC(=O)c2ccccc2SC)CC1,-19.8%
12,Cc1ccc(S(=O)(=O)Nc2cccc(-n3cnnn3)c2)cc1C(=O)O,2.49%
13,CCOc1cc(Cl)c(S(=O)(=O)NCCCN2CCOCC2)cc1Cl,-16%
14,COc1cccc(C2=CC(=O)CC(C)(C)C2)n1,12.7%
15,O=C(O)CCCCCNS(=O)(=O)/C=C/c1ccccc1,11.2%
16,Cn1c(=O)c2c(nc(Sc3ncnn3CC(=O)N3CCOCC3)n2C)n(C)c1=O,11.2%
17,Cc1csc(N(C)C(=O)CSc2nnc(COc3ccccc3C)o2)n1,6.62%
18,O=S(=O)(NCC(c1cccnc1)N1CCN(c2ccc(F)cc2)CC1)c1ccc(F)cc1 (stereo not drawn),-31.3%
19,CCn1nnc(NC(=O)COc2ccc(C3CCCCC3)cc2)n1,7.38%
20,CCCC1c2ccsc2CCN1C(=S)NC (stereo not drawn),8.22%
21,O=S(=O)(NCCc1cn2ccccc2n1)c1ccc(-c2ccccc2)cc1,-11.6%
22,COc1cc(Cl)ccc1OCc1cc(C(=O)N(C)CC2CCCCO2)no1 (stereo not drawn),2.24%
23,CCOC(=O)C(Cc1ccc(Cl)cc1Cl)c1ccno1 (stereo not drawn),11.3%

row,Structure (SMILES),"hERG current change (%, negative = inhibition) at 1uM"
1,CC(=O)Nc1ccc2c(c1)CCCC2=O,13.1%
2,Cc1cccc(Oc2ncnc3onc(C)c23)c1C,15.8%
3,NS(=O)(=O)c1cccc(NC(=O)CSc2nn(-c3ccccc3)c(=S)s2)c1,4.06%
4,CCCCOC(=O)C(C)Sc1n[nH]c(=O)[nH]c1=O (stereo not drawn),16.3%
5,N#CC12COC3(CCCCC3C1(C#N)C#N)OC2=N (stereo not drawn),8.2%
6,C/C(=N/N1CCN(c2ccccc2)CC1)c1cccc([N+](=O)[O-])c1,8.81%
7,COc1ccc(CCNC(=O)CSc2nc3[nH]c(=O)cc(O)c3s2)cc1,5.25%
8,CN1CCN(C(=O)OC2c3nccnc3C(=O)N2c2ccc(Cl)cn2)CC1 (stereo not drawn),14.1%
9,O=C(CCCSc1nc2ccccc2s1)Nc1nccs1,-2.02%
10,O=C(O)CNC(=O)c1ccccc1F,0.871%
11,COC(=O)/C=C1\SC(=Nc2ccccc2)NC1=O,14.9%
12,COc1cccc(CNC(=O)c2cccnc2Sc2ccccc2)c1,14.2%
13,COC(=O)c1ccccc1NC(=O)CN(c1cc(OC)ccc1OC)S(C)(=O)=O,0.279%
14,CN(CCC#N)C(=O)COC(=O)c1ccc2[nH]c3c(c2c1)CCCC3,14.9%
15,CCN(CC)S(=O)(=O)c1ccc2nc(SC)sc2c1,13.2%
16,C#CCOCCOCCOCCNc1nc(N2CCOCC2)nc(N2CCN(C(=O)CCCCCCCCCCNC(=O)[C@@H](CCC(=O)O)n3cc(CCCCCN)nn3)CC2)n1,14.2%
17,CCOC(=O)N1CCC(N2CC34C=CC(O3)C(C(=O)Nc3ccc(F)cc3)C4C2=O)CC1 (stereo not drawn),0.228%
18,COc1ccc(Cc2noc(CN(C)C3CC(C)(C)NC(C)(C)C3)n2)cc1OC,13.6%
19,CCn1cc(-c2cc(C(=O)O)c3ccccc3n2)c(C)n1,17.9%
20,CCCCOc1cccc(C(=O)NNC(=S)NC2CCCCC2)c1,8.24%
21,O=C(N/N=C/C(Br)=C/c1ccccc1)c1ccc([N+](=O)[O-])cc1,14.9%
22,CC1(C)C2CCC1(C)C(OC(=O)CC(=O)O)C2 (stereo not drawn),6.23%
23,COc1cccc(OC)c1C1=NCC(=O)Nc2c1oc1ccc(Br)cc21,-17.7%

row,Structure (SMILES),"hERG current change (%, negative = inhibition) at 1uM"
1,O=C(CC12CC3CC(CC(Br)(C3)C1)C2)NCc1ccccc1,3.51%
2,Cc1nnc(NC(=O)c2oc3ccccc3c2C)s1,16.5%
3,COc1ccc(C(CNC(=O)c2ccc3c(c2)C(=O)N(CCC(C)C)C3=O)N2CCOCC2)cc1 (stereo not drawn),8.5%
4,COC(=O)C1CCN(C(=O)Cc2ccccc2OC)CC1,15.5%
5,COc1ccc(-n2nc(C(=O)NCc3ccco3)c3c4ccccc4n(C)c3c2=O)cc1,5.12%
6,O=C(N/N=C/c1cc([N+](=O)[O-])ccc1O)c1ccc2c(c1)OCCO2,11.8%
7,CN(c1nc2ccccc2nc1Cl)S(=O)(=O)c1ccccc1,0.387%
8,CCN1CCCC1CNC(=O)C(=O)Nc1cccc(OC)c1 (stereo not drawn),9.44%
9,Cc1ccc(NS(=O)(=O)c2ccc3c(c2)OCCCO3)cc1S(=O)(=O)N1CCOCC1,13.3%
10,O=C(NC1CCCC1)c1nc2c(nnn2Cc2ccccc2Cl)c(=O)[nH]1,7.94%
11,CCOc1ccc(NC(=O)CCC(=O)N/N=C/c2ccc3c(c2)OCO3)cc1,20.8%
12,CCCc1nc2c(=O)n(C)c(=O)[nH]c2n1CCC,3.2%
13,C[C@@H]1C(=O)O[C@@H]2[C@H](O)C34[C@@H]5OC(=O)C3(O[C@H]3OC(=O)[C@H](O)C34[C@H](C(C)(C)C)[C@H]5O)[C@@]12O (stereo partly drawn),18.5%
14,CCOc1ccc(NC(=O)CSc2nnc(COc3c(C)cccc3C)o2)cc1,10.3%
15,CCCn1c(SCC(=O)Nc2ccc3c(c2)OCO3)nc2c1c(=O)n(C)c(=O)n2C,10%
16,CC(/C=C1\N=C(SCc2ccccc2)SC1=O)=C\c1ccccc1,16.6%
17,NC1=NC[C@H](Cc2ccccc2)N1CC1CCCCC1,8.56%
18,C/C(=N\Nc1ccccc1)c1cc2ccccc2oc1=O,11.8%
19,CN(C)P1(N(C)C)=Nc2c(c(N)nn2C)C(c2ccccc2)=N1,7.71%
20,CCCN(CCC)S(=O)(=O)c1ccc(NC(=O)Cc2cccs2)cc1,7.17%
21,Nc1c(C=C2C=CC(=O)C=C2)c(=O)nc2sc(CC(=O)N3CCOCC3)nn12,15.2%
